Assay results published in paper PMC4336329 (PLoS ONE, 2015).
Hit rate of the full screen: of about 310,000 compounds, about 14,000 (4.5%) showed an effect of 50% or more. The effect is printed as a negative number. The list shows a part of the results.

biological target: human ether-à-go-go-related gene (hERG) potassium channel (human, UniProt Q12809); assay: primary screen, population patch clamp on CHO cells stably expressing hERG
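Further: peak tail current of the secondary pulse compared with the same well before compound.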

Sequence of human ether-à-go-go-related gene (hERG) potassium channel (Q12809 whole entry, looked up): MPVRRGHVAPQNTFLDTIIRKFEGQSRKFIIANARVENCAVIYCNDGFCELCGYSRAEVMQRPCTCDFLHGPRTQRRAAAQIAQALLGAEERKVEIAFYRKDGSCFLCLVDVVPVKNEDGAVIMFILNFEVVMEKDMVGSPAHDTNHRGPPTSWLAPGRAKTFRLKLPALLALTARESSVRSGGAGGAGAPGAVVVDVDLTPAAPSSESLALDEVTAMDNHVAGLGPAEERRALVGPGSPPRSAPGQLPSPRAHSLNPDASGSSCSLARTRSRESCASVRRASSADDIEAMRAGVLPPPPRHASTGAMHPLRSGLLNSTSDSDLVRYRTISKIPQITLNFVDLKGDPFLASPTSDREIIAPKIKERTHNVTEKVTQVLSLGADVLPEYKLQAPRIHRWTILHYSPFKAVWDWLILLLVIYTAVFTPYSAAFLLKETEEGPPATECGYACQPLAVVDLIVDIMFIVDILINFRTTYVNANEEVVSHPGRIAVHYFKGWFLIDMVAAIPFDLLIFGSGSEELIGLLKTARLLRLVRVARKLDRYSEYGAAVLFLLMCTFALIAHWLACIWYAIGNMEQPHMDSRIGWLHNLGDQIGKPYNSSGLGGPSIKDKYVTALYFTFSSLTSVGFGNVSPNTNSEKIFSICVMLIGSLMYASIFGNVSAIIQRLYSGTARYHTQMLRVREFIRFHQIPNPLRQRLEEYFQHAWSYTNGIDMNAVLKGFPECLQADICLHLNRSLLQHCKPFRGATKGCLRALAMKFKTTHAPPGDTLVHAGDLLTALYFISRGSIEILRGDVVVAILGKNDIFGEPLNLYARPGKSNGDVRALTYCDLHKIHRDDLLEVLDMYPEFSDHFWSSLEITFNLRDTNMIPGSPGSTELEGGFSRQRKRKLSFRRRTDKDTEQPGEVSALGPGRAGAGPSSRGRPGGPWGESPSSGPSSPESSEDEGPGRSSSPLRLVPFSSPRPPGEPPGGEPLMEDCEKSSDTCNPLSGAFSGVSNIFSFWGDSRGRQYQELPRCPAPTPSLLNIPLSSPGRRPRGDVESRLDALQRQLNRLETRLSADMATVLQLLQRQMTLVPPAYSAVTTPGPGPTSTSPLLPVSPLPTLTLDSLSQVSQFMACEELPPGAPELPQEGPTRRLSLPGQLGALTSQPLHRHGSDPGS

SMILES | hERG current change (%, negative = inhibition) at 10uM [%]
CC(C)(C)c1ccc(C(=O)N/N=C/c2ccc(OCCCF)cc2)cc1 | 3.03
Cc1cc(Nc2cc(Cl)cc(Cl)c2)nc(N)n1 | -29.6
Cc1nc2ccccc2n1C(=O)N1CCOCC1 | 5.96
CC(C)(C)c1ccc(CCC2OCC(CN3CCOCC3)O2)cc1 (stereo not drawn) | -7.38
CC(=O)NS(=O)(=O)c1ccc(NC(=O)/C=C/c2ccccc2)cc1 | 6.8
O=C(C1CC(=O)N(c2ccc(F)cc2)C1)N1CCN(c2ccccc2)CC1 (stereo not drawn) | -58.3
CCc1nnc(SCC(=O)Nc2ccccc2)n1CC1CCCO1 (stereo not drawn) | 2.61
CC(C)c1nnc(NC(=O)COC(=O)/C=C/c2ccc([N+](=O)[O-])cc2)s1 | -4.83
CCOc1ccc(/C=C/c2[nH]c(=O)[nH]c(=O)c2[N+](=O)[O-])cc1 | 8.01
O=C(CCC(=O)N(CC(=O)NC1CCCCC1)Cc1ccccc1)Nc1ccccn1 | 4.24
CC1(C)Cc2c(sc3c2C(=O)N(c2ccccc2)C2=NCCN23)CS1.Cl | -5.58
Cc1ccc(Cn2ccc(NC(=O)c3cc(-c4ccc(Br)cc4)on3)n2)cc1 | 22.6
CC(C)[N+]1(C)[C@@H]2CC[C@H]1CC(OC(=O)C(CO)c1ccccc1)C2.O.[Br-] (stereo partly drawn) | 5.51
COc1cc(C(=O)OCc2cccc(OC)c2OC)ccc1OCC(=O)N1CCOCC1 | -22.9
O=C(O)C1CCN(S(=O)(=O)c2cccc3nonc23)CC1 | 9.01
CCCCOc1ccc(C(=O)N2CCCC2C(=O)O)cc1 (stereo not drawn) | -5.76
COC(=O)CC1C(=O)NCCN1C(=O)c1cc([N+](=O)[O-])ccc1Cl (stereo not drawn) | 15
O=C(O)[C@@H]1CCCN1S(=O)(=O)c1cccc(S(=O)(=O)N2CCC[C@H]2C(=O)O)c1 | 16.5
Cc1cccc(OCc2nnc(SCC(=O)Nc3cccc(C(=O)N4CCOCC4)c3)n2C)c1C | -12.7
CCNCCC(=O)N1c2ccccc2Sc2ccc(NC(=O)OCC)cc21.Cl | -29.6
NC(=O)[C@@H]1CCCN1C(=O)c1cc(COc2ccc3c(c2)CCCC3)on1 | -15
O=C(Nc1cccnc1)c1ccc(Cl)c(S(=O)(=O)N2CCOCC2)c1 | -1.56
CCOC(=O)N1CCN(C(=O)c2cnsn2)CC1 | 8.52

SMILES | hERG current change (%, negative = inhibition) at 10uM [%]
CCCN(CCC)S(=O)(=O)c1ccc(C(=O)N2CCN(C)CC2)cc1 | 3.58
Clc1ccccc1C1=CC(c2ccco2)n2nnnc2N1 (stereo not drawn) | 1.89
CC(C)Sc1nc(N2CCCC2)c2c(c1C#N)CC(C)(C)OC2 | -16.5
CC(C)c1nnc(NC(=O)CCc2ccccc2)s1 | 21.6
CCOC(=O)CSc1nnc(-c2cccnc2)n1C | 12.3
COC(=O)c1c(NC(=O)COC(=O)c2ccccn2)sc(C)c1C | 3.74
O=C(Oc1ccc2c(c1)OCO2)c1ccc(F)cc1Cl | -4.08
COc1cccc(-n2c(CN3CCOCC3)nc3ccc([N+](=O)[O-])cc3c2=O)c1 | 4.51
CSc1ccccc1OCc1cc(C(=O)N[C@H]2CCCCNC2=O)no1 | 10.7
CCc1noc(C)c1C(=O)OCC(=O)Nc1ccc(F)cc1Cl | 14.3
Nc1nnc(SCC(=O)NC2CCCC2)s1 | 14.3
CCOc1ccc2nc(NC(=O)CN3CCN(c4ccccn4)CC3)sc2c1 | -7.47
Cc1ccc(Cn2c(SCCN3CCOCC3)nc3c2c(=O)n(C)c(=O)n3C)cc1 | -28
O=C(Cn1c(C(F)(F)F)nc2ccccc21)NCCN1CCCC1 | 4.91
COc1ccc(C(C)=O)cc1CSc1nc2cc(Cl)ccc2o1 | 9.66
CC(=O)c1cccc(NC(=O)CCS(=O)(=O)c2cccc3nsnc23)c1 | 6.56
COC(=O)/C(=C1\Oc2ccc(C(C)(C)C)cc2S1)C(F)(F)F | 2.47
COc1ccc(-c2[nH]ncc2C2N=C(N)Nc3nc4ccccc4n32)cc1 (stereo not drawn) | 27.9
COc1cc(OC)cc(C(=O)N[C@H](C(=O)OCC(N)=O)C(C)C)c1 | 4.3
COc1ccc(C2C(C(=O)OCC3CCCO3)=C(C)NC3=C2C(=O)CC(c2ccco2)C3)cc1O (stereo not drawn) | 5.72
N#Cc1ccccc1COC(=O)c1ccc(Br)o1 | 5.75
Cc1ccccc1N1CCN(C(=O)[C@@H]2CCCN2C2=NS(=O)(=O)c3ccccc32)CC1 | -14.3
